Results as given in article PMC4336329 (PLoS ONE, 2015).
The campaign covered roughly 310,000 compounds. About 14,000 (4.5%) showed an effect of 50% or more. The effect is printed as a negative number. Some of the results follow.

The molecules below were run against human ether-à-go-go-related gene (hERG) potassium channel (human, UniProt Q12809) (assay: primary screen, population patch clamp on CHO cells stably expressing hERG).
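Note: peak tail current of the secondary pulse compared with the same well before compound.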

Chain of human ether-à-go-go-related gene (hERG) potassium channel (Q12809 whole entry, looked up): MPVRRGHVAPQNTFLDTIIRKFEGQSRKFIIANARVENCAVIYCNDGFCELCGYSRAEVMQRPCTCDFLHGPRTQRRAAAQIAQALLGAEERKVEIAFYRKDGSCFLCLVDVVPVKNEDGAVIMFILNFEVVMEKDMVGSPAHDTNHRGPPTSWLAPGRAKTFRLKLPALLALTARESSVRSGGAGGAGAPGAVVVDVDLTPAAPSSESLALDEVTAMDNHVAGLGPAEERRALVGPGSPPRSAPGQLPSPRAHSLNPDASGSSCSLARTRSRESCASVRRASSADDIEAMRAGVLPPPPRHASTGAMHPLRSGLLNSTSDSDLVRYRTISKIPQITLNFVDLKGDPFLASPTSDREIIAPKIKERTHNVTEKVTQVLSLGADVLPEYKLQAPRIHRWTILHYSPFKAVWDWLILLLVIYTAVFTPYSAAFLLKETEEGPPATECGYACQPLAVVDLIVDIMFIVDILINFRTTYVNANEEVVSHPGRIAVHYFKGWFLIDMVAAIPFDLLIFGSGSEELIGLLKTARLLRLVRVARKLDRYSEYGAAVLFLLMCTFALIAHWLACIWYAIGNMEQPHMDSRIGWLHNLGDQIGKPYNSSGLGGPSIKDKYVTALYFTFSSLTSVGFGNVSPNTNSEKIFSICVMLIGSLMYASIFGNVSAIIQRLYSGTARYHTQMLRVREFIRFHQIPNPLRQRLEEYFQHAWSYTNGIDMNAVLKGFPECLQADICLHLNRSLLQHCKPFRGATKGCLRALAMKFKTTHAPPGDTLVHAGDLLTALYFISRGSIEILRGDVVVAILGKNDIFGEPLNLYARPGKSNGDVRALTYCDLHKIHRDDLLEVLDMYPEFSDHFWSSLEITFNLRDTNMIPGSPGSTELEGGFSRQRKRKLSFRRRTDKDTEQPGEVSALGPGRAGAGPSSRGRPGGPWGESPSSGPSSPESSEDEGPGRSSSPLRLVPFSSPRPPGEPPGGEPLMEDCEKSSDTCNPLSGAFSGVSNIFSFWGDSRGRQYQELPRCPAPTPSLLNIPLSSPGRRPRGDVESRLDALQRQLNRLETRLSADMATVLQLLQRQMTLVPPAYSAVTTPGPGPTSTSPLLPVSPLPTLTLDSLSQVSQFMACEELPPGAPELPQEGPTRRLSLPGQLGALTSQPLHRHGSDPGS

| SMILES | hERG current change (%, negative = inhibition) at 10uM |
| --- | --- |
| O=C(O)c1cccnc1SC1CC(=O)N(c2cccc(C(F)(F)F)c2)C1=O (centres unmarked) | 5.2% |
| COc1ccc(C(=O)NC2CC(C)(C)Cc3c2cnn3-c2ccccc2C)o1 (centres unmarked) | -30.5% |
| COC(=O)c1c(NC(=O)COc2ccc(Cl)cc2)sc2c1CC(C)(C)NC2(C)C | 8.29% |
| CCn1ccnc1CN(C)C(=O)c1ccc2nc(Cc3ccc(OC)cc3)oc2c1 | -45.7% |
| CCN1CCN(c2nc(S(=O)(=O)c3ccc(C)cc3)c(Cl)s2)CC1.Cl | -30.7% |
| O=C(CC(c1ccccc1)c1ccccc1)OCn1nnc2ccccc2c1=O | 10.1% |
| COc1cccc(-c2nc(CS(=O)(=O)CC(=O)NCc3ccccc3)c(C)o2)c1 | -15.2% |
| Cc1ccc2cc(CN(CC3CCCO3)C(=O)c3cccs3)c(=O)[nH]c2c1 (centres unmarked) | -38.8% |
| Clc1ccccc1CN1CCN(c2ccccc2)CC1 | 18.8% |
| Cc1cc(C)cc(OCc2nc(-c3cccnc3)no2)c1 | 0.615% |
| Cn1c(=O)c2c(nc(CN3CCc4ccccc4C3)n2Cc2ccccc2)n(C)c1=O | -17.5% |
| O=c1c2cc(N3CCOCC3)ccc2[nH]c(=S)n1CCCN1CCCC1 | -4.98% |
| COc1cccc(CC(NC(C)=O)C(=O)NC2CCN(S(=O)(=O)c3ccc(C)cc3)CC2)c1OC (centres unmarked) | 17.8% |
| NS(=O)(=O)c1ccc(CNC(=O)CC23CC4CC(CC(C4)C2)C3)cc1 | -5.69% |
| Cc1ccc(NS(=O)(=O)c2ccc3[nH]c(=O)[nH]c3c2)c(C)c1 | 23.4% |
| CCOC(=O)C1NN=C(C(=O)c2ccc(C)cc2)C1c1ccc(C)cc1 (centres unmarked) | -34.9% |
| Cc1nc(NC(=O)COC(=O)C2=NNC(=O)CC2)c(Cl)cc1Cl | -1.01% |
| COC(=O)C1=CN(CC2CCCO2)C=C(C(=O)OC)C1c1ccsc1 (centres unmarked) | -11.5% |
| CCOc1ccc(C2c3[nH]c4ccccc4c3CCN2Cc2cn(CC)nc2C)cc1 (centres unmarked) | -63.6% |
| Cc1ccc(CC(=O)N/N=C/c2ccc(OC(=O)c3ccc([N+](=O)[O-])cc3)cc2)cc1 | 5.7% |
| N#Cc1c(N)sc2c1CCN(C(=O)OCc1ccccc1)C2 | -14.9% |
| Cc1cccc(NC(=O)c2ccc(S(=O)(=O)NCc3cccnc3)cc2)c1C | -6.29% |
| COc1cc(C(=O)n2nc(C)cc2C)ccc1O | -8.08% |

| SMILES | hERG current change (%, negative = inhibition) at 10uM |
| --- | --- |
| Cc1cc(O)c(C(C)C)cc1N=Nc1ccccc1C(=O)O | -1.98% |
| CC(C)Sc1nnc(NC(=O)c2ccco2)s1 | 14.8% |
| Cc1cc(C)cc(OCC(=O)Nc2nc3ccc([N+](=O)[O-])cc3s2)c1 | 4.71% |
| CC1(CCc2ccc3c(c2)OCO3)NCCc2c1[nH]c1ccccc21.Cl (centres unmarked) | -85.8% |
| Nc1nc(Cn2nnc(-c3ccccc3F)n2)nc(N2CCOCC2)n1 | -73.4% |
| COC(=O)c1cccc(NC(=O)CCSc2ccc(Cl)cc2)c1C | 8.65% |
| CCCCCC(=O)Nc1cccc(S(=O)(=O)NC2=NCCCCC2)c1 | -18.4% |
| CC(C)(C)n1nc2c(c1NC(=O)COc1ccc3ccccc3c1)CS(=O)C2 (centres unmarked) | 3.36% |
| COc1ccccc1NC(=O)/C=C/C(N)=O | -12.9% |
| CCOC(=O)CSc1nnc(C)c(=O)[nH]1 | 19.8% |
| CSC1=NC(C(Cl)(Cl)Cl)N=C(c2ccccc2)N1 (centres unmarked) | -1.83% |
| NC1=NC(=Nc2cccc(Cl)c2)c2ccccc21 | 2.96% |
| COC(=O)c1c(NC(=O)CN2C(=O)C(=O)N(C(C)C)C2=O)sc(C)c1C | -3.9% |
| COc1ccccc1N1CCN(C2CCCN(C(=O)CCn3cncn3)C2)CC1 (centres unmarked) | 13% |
| CC(C)(C)c1ccc(C(=O)Oc2ccc3c(c2)OCC3=O)cc1 | 2.55% |
| CCn1c(C)c(C(C)=O)c(N2CCC(C(N)=O)CC2)nc1=S | 10.3% |
| COc1ccc(CCNC(=O)CSc2nnc3c(n2)[nH]c2ccc(F)cc23)cc1OC | 12.8% |
| Nc1c(C(=O)Nc2ccccc2)sc2nc3c(c(-c4ccco4)c12)CCC3 | 13.1% |
| Cc1cc(O)c(S(=O)(=O)c2ccccc2)c(C)c1NS(=O)(=O)c1ccccc1 | -7.72% |
| CCN1CCc2nc(NC(=O)C(c3ccccc3)c3ccccc3)sc2C1 | -10.9% |
| Nc1ncccc1OCc1cccc(C(F)(F)F)c1 | -4.68% |
| NC(=O)[C@@H]1CCCN1C(=O)c1cc(COc2ccc(F)cc2F)on1 | 22.2% |
| O=C1COc2ccc(S(=O)(=O)N3CCC(C(=O)NCc4ccc(F)cc4)CC3)cc2N1 | 10.4% |

| SMILES | hERG current change (%, negative = inhibition) at 10uM |
| --- | --- |
| CCOc1ccc(Cl)cc1CNCCc1ccccc1F.Cl | -59.8% |
| COc1ccc(CCNS(=O)(=O)c2ccc(Cl)cc2)cc1OC | -6.54% |
| CC(=O)Nc1ccc(S(=O)(=O)Nc2ccc3c(c2)CCC3)cc1 | -1.39% |
| COC(=O)CCn1nnc(-c2ccc(C(C)C)cc2)n1 | -9.31% |
| CCC(C)(C)n1nnnc1C(c1ccccc1OC)N1CCSCC1 (centres unmarked) | -24.1% |
| Cc1ccc(NC(=O)CCC(=O)NNC(=O)c2ccco2)c(C)c1 | -3.29% |
| CSc1ncc(C(=O)Nc2cc(C)ccc2C)c(C)n1 | -34.7% |
| CCC(CC)C(=O)Nc1nnc(S(=O)(=O)N2CCCCCC2)s1 | 1.54% |
| O=C(CSc1nnc(-c2ccccc2)n1C1CCCCC1)N1CCCC1 | -6.76% |
| Cc1nc([N+](=O)[O-])cn1CC(=O)c1ccc(F)cc1 | 10.5% |
| COc1cccc(C2CC(c3cccs3)=NN2S(C)(=O)=O)c1OC (centres unmarked) | 7.29% |
| O=C(Nc1ccc(CN2CCOCC2)cc1)c1cc(Cl)ccc1Cl | 0.807% |
| O=C(CCSc1nc(-c2ccco2)cc(C(F)(F)F)n1)N1CCN(c2ccccn2)CC1 | -43.1% |
| CCc1ccc(C(=O)N/N=C/c2cccc3ccccc23)nc1 | 1.8% |
| O=C(CCc1ccccc1)NNC(=O)COc1ccccc1Cl | 14% |
| Cl.O=C1C2CCN(CC2)C1Cc1ccc(OCCOc2ccccc2)cc1 (centres unmarked) | -20.2% |
| COC(=O)c1sc(N)c(C(=O)OC)c1COC(=O)C12CC3CC(CC(O)(C3)C1)C2 | 5.88% |
| CCOc1ccc(N2C(=O)/C(=C/c3ccco3)N(C)C2=S)cc1 | -4.46% |
| CC1(C)Cc2c(sc3nc4n(c(=N)c23)CCC4)CO1 | 4.27% |
| FC(F)Oc1ccc(NC(=S)NC2CCCCCCC2)cc1 | 7.35% |
| NC(=O)c1nsc(C(=O)N(CC(=O)NCc2ccco2)c2ccccc2F)c1N | -33.2% |
| O=C(CCSc1ccccn1)Nc1ccc(Br)cc1 | -27% |
| Cc1[nH]nc2c1C(c1ccoc1)C(C#N)=C(N)O2 (centres unmarked) | -8.65% |

| SMILES | hERG current change (%, negative = inhibition) at 10uM |
| --- | --- |
| C=CCNC(=O)C1CCN(S(=O)(=O)c2cccs2)CC1 | 16.6% |
| COc1ccc(-c2noc(CCC(=O)NCCCN3CCC(C)CC3)n2)cc1 | -5.81% |
| COc1ccc(-c2cc3ccccc3cn2)cc1 | 14.5% |
| Cc1ccc(C)c(OCC(=O)NCC(C)(C)N2CCOCC2)c1 | -21.9% |
| O=C1CC(C(=O)N2CCN(c3ccc(F)cc3)CC2)CN1CCc1ccccc1 (centres unmarked) | -50.5% |
| CCN(CC)CC(=O)N1c2ccccc2Oc2c(c(=O)n(C)c(=O)n2C)C1c1cccc([N+](=O)[O-])c1 (centres unmarked) | -7.86% |
| Cc1ccc(-n2c(C)cc(/C=N/Nc3ccc([N+](=O)[O-])cn3)c2C)c(C)c1 | 10.4% |
| CC1(CO)COC(c2ccccc2)=N1 (centres unmarked) | -13% |
| COCC(=O)Nc1nc(-c2ccc(-c3ccccc3)cc2)cs1 | 17.5% |
| CC(C)(C)n1cc(S(=O)(=O)c2ccccc2)[nH]c1=O | 16.5% |
| COc1ccc([N+](=O)[O-])cc1N(CC(O)CN1CCOCC1)S(=O)(=O)c1ccccc1 (centres unmarked) | 20% |
| COc1ccc(C2CC(c3cccs3)=Nc3ccccc3S2)cc1OC (centres unmarked) | 13.3% |
| CCCCc1ncc(CN2CCC(n3nccc3NC(=O)c3ccccc3Cl)CC2)[nH]1 | -40.3% |
| O=C(CSc1nc(C2CC2)n(-c2ccccc2)n1)NCc1ccco1 | -17.2% |
| N#Cc1c(N2CCOCC2)nsc1-c1ccc(C(F)(F)F)cc1 | -0.272% |
| COC(=O)c1oc2ccc(Br)cc2c1NC(C)=O | 3.19% |
| N#Cc1cc2c([nH]c1=S)CCCCCC2 | 3.43% |
| COc1ccc(N2C(=O)C3C(c4ccc(OC)cc4O)NC(Cc4ccccc4)(C(=O)O)C3C2=O)cc1 (centres unmarked) | 19.5% |
| Cl.OC(c1ccc(F)cc1)C(c1ccccc1)N1CCOCC1 (centres unmarked) | 5.22% |
| Cc1cnc(C(=O)N2CCN(S(=O)(=O)c3ccc4ccccc4c3)CC2)cn1 | -8.41% |
